The structures appear in SMILES notation. In all, about 48,000 compounds went through this assay and about 550 (1.1%) were called active. Inconclusive results (about 4%) are left out. Rule as the data show it: active = potency below about 15 µM; inconclusive = mostly about 16 µM to 33 µM; inactive = weaker than that. This is one part of the list.
Potency is read from the fitted curve at half-maximal effect.

UniProt P04062, sequence (P04062 whole entry, looked up): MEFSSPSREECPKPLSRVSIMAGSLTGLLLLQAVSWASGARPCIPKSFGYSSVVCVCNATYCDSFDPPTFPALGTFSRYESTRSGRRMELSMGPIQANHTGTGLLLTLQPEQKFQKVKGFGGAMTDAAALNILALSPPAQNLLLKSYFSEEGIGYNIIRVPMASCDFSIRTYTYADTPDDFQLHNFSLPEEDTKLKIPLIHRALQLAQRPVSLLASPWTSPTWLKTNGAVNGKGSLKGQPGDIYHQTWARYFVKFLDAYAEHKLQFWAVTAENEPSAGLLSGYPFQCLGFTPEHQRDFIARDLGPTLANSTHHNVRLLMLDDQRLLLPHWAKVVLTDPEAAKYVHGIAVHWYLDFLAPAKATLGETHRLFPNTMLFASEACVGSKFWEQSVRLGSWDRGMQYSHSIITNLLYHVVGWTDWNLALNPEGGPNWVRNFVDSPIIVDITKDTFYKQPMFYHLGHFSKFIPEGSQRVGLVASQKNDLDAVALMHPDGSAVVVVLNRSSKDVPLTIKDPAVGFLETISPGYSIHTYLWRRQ

The experiment has as its target Lysosomal acid glucosylceramidase (Homo sapiens) (UniProt P04062). Put plainly: Glucocerebrosidase.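 Also: the screen sought inhibitors.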 Conditions: purified enzyme, resorufin glucoside fluorescence (screen aimed at inhibitors), 20 min. In a few lines:
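Compounds titrated against 0.2 nM normal enzyme, 30 uM resorufin beta-D-glucopyranoside substrate, citrate/phosphate buffer with taurocholate and tween-20, pH 5.9. Reaction ran 20 min at room temperature; fluorescence (Ex 548/Em 600) gave AC50.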
On to `Cn1c(=O)[nH]c(=O)c2c1nc(N1CCNCC1)n2Cc1cccc2ccccc12`, for which the Potency is inactive: > 76.9 µM.
With `CC(C)c1nnc(NC(=O)CCC(=O)N2CCN(C3CCCCC3)CC2)s1`, the Potency is inactive: > 76.9 µM.
With `Cc1ccc(C)c(S(=O)(=O)Nc2ccc(S(=O)(=O)Nc3onc(C)c3C)cc2)c1` the figure was inactive: > 76.9 µM.
On to `COc1ccc(Cc2nnc(SCC(=O)N3CCN(c4ccccc4)CC3)o2)cc1`, for which the Potency was inactive: > 76.9 µM.
With `O=S(=O)(CCc1ccccc1)/N=C/c1cccs1` the figure was inactive: > 76.9 µM; with `CCC(=O)Nc1ccc(-c2nc(-c3ccccc3)n(CC(=O)N3CCCCC3)n2)cc1`, inactive: > 76.9 µM.
With `O=c1[nH]n(-c2ncnc3c2cnn3-c2ccccc2)c(=O)c2ccccc12` the figure was inactive: > 76.9 µM; with `CCOC(=O)C(C)Oc1ccc(C2NC(=O)NC(C)=C2C(=O)Nc2ccccc2C)cc1` (stereo not drawn), inactive: > 76.9 µM.
Then `Cc1cc2nc(NC3=NCN(CCN4CCOCC4)CN3)nc(C)c2cc1C`, with inactive: > 76.9 µM; and `Cn1ccnc1SCC(=O)Nc1ccc2c(c1)COC2=O`, with inactive: > 76.9 µM.
Regarding `CCCCC(=O)NC1=NC(=O)C(C)(C)S1`, the Potency is inactive: > 76.9 µM.
As for `COc1ccc(/C=N/n2cnnc2)cc1COc1ccccn1`, the Potency is inactive: > 76.9 µM.
With `Cc1nc(NC2=NCN(CCN3CCOCC3)CN2)nc2c(C)cccc12` the figure was inactive: > 76.9 µM.
Turning to `Cc1ccc(-n2c3c(cc(C(=O)Nc4cccc(C)n4)c2=O)C(=O)CCC3)cc1`, the Potency was inactive: > 76.9 µM.
Turning to `O=S(=O)(c1ccccc1)c1nc(-c2ccco2)oc1NCc1ccco1`, the Potency was inactive: > 76.9 µM.
Then `COc1ccc(CCNC(=O)CN2CCCc3ccccc32)cc1OC`, with inactive: > 76.9 µM; and `Cc1nnc(SCc2ccccc2)n1N`, with inactive: > 76.9 µM.
For `CCOc1ccc2nc(NC(=O)c3ccc(S(=O)(=O)N4CCOCC4)cc3)sc2c1`, the Potency was inactive: > 76.9 µM.
As to `Cn1ncc(C#N)c1/N=C/N1CCCCC1`, the Potency was inactive: > 76.9 µM.
Then `COC(=O)[C@H](CCSC)NC(=O)Nc1ccc(C(C)C)cc1`, with inactive: > 76.9 µM.
As to `CCOC(=O)C1=C(NC#N)OC(C)=C(C)C1c1ccc(O)cc1` (stereo not drawn), the Potency is inactive: > 76.9 µM.
In the case of `COc1ccccc1NS(=O)(=O)c1ccc(NC(=O)CCNC(=O)c2ccco2)cc1`, the Potency is inactive: > 76.9 µM.
With `O=C(NC1(C(F)(F)F)NC(=O)N(C2CCCC2)C1=O)C1CC1` (stereo not drawn) the figure was inactive: > 76.9 µM; with `COc1ccc(-c2ccc(=O)n(Cc3cc(=O)n4ccccc4n3)n2)cc1`, inactive: > 76.9 µM.
Take `Cn1c(=O)c2c(ncn2CCN(CCO)Cc2ccccc2)n(C)c1=O`: the Potency is inactive: > 76.9 µM.
With `O=C(CN1CCN(S(=O)(=O)c2ccccc2)CC1)Nc1cccc(C(F)(F)F)c1` the entry was “inactive”; with `O=c1oc2ccccc2cc1-c1cn2cccnc2n1`, inactive: > 76.9 µM; with `COc1ccc(OC)c(NC(=O)CSc2nnc(CNc3ccc(C)cc3C)o2)c1`, inactive: > 76.9 µM.
`CC1C(=O)CCC1(C(=O)O)c1ccccc1` (stereo not drawn): the Potency is inactive: > 76.9 µM.
With `O=c1[nH]c2cc3c(cc2cc1CN(Cc1nnnn1CC1CCCO1)C1CCCC1)OCO3` (stereo not drawn) the figure was inactive: > 76.9 µM; with `CCOC(=O)c1ccc2[nH]c(C)c(CN3CCN(C)CC3)c(=O)c2c1`, inactive: > 76.9 µM; with `COC(=O)c1cccc(OCC(O)Cn2ccnc2)c1` (stereo not drawn), inactive: > 76.9 µM.
With `CN1C(=O)NC(NC(=O)c2ccncc2)(C(F)(F)F)C1=O` (stereo not drawn) the figure was inactive: > 76.9 µM; with `CC(=O)Nc1ccc(C(=O)CSc2nnc3scc(-c4ccccc4)n23)cc1`, inactive: > 76.9 µM; with `O=C(COc1ccccc1)NCc1ccc2c(c1)OCO2`, inactive: > 76.9 µM.
Then `CCn1c(SCC(N)=O)nc2c1c(=O)n(C)c(=O)n2C`, with inactive: > 76.9 µM.
As to `Cc1cc(NC(=O)C2CC2)ncc1NC(=O)C12CC3CC(CC(C3)C1)C2`, the Potency is inactive: > 76.9 µM.
With `Cc1cc2nc(NC3=NCN(Cc4ccc5c(c4)OCO5)CN3)nc(C)c2cc1C` the figure was inactive: > 76.9 µM; with `Fc1ccccc1OCCCCn1cncn1`, inactive: > 76.9 µM.
Then `O=C(O)c1ccc(S(=O)(=O)Nc2ccc(F)c(Cl)c2)cc1`, with inactive: > 76.9 µM; and `O=C(NCc1ccccc1)c1cnsn1`, with inactive: > 76.9 µM; and `COc1ccc(C)cc1S(=O)(=O)N(C)CC(=O)Nc1ccc2c(c1)OCO2`, with inactive: > 76.9 µM.
Take `COC(=O)C(C)Sc1nc2c(c(=O)[nH]c(=O)n2C)n1CCC(C)C` (stereo not drawn): the Potency is inactive: > 76.9 µM.
For the compound `CN1C=C(C(F)(F)F)C=C/C1=C(\C#N)c1nnc2n1CCCCC2`, the Potency was inactive: > 76.9 µM.
Then `CN(C)CCN1CC(C(=O)O)CC1=O` (stereo not drawn), with inactive: > 76.9 µM; and `CN(C)CCNC(CC(=O)Nc1ccc(Cl)c(Cl)c1)C(=O)O` (stereo not drawn), with inactive: > 76.9 µM.
With `COC(=O)N1CCN(c2ccc(OC)cc2)CC1` the figure was inactive: > 76.9 µM; with `COc1ccccc1CN1C(=O)CCC1(C)C(=O)NCc1cccnc1` (stereo not drawn), inactive: > 76.9 µM; with `CN(c1ccc(C(=O)NCc2ccco2)cc1)S(C)(=O)=O`, inactive: > 76.9 µM.
On to `CCOC(=O)N1CCN(Cc2ccccc2Cl)CC1`, for which the Potency is inactive: > 76.9 µM.
As for `COc1ccc(N2CCN(C(=O)CC3NC4CCCCC4NC3=O)CC2)cc1` (stereo not drawn), the Potency was inactive: > 76.9 µM.
As to `COc1cc(C2C(C#N)=C(N)Oc3cc(N(C)C)ccc32)cc2c1OCO2` (stereo not drawn), the Potency was inactive: > 76.9 µM.
Then `CCOC(=O)N1CCN(C(=O)CCCN2C(=O)CSc3nc(C)cc(C)c32)CC1`, with inactive: > 76.9 µM; and `O=C(CSc1nnnn1Cc1ccccc1)N1CCN(c2ccccc2)CC1`, with inactive: > 76.9 µM; and `COCCn1nnnc1C(c1cc2ccc(C)cc2[nH]c1=O)N(Cc1ccco1)Cc1cccs1` (stereo not drawn), with “inactive”.
With `Cc1nnc(SCCn2c(N(C)Cc3ccccc3)nc3c2c(=O)n(C)c(=O)n3C)s1` the figure was inactive: > 76.9 µM; with `Nc1ccc(CN2CCN(c3ccc4ccccc4n3)CC2)cc1`, inactive: > 76.9 µM; with `CC1(C)Oc2ccc(C(=O)N3CCCCC3)cc2N(CC(=O)NCc2ccccc2)C1=O`, inactive: > 76.9 µM.

(Values after PubChem BioAssay AID360 (National Center for Advancing Translational Sciences (NCATS), 2006).)
